Measured values: the supplement of paper PMC7826260
The list shows a part of the results. Each Rep nickase domain was tested in vitro on the same pool of single strands at 3 µM enzyme and 37 °C for 1 h; the strands have 90 letters, of which the middle is given. Values are log2 of uncut reads against the no-enzyme pool; the lower, the more was cut; hits are not called. Reads are scaled to the total; where an enzyme cuts many sequences, the uncut ones exceed 0.

Columns and labels:
Assay in all cases: uncleaved DNA left, log2 of reads against the no-enzyme library (log2 ratio); higher = less cleavage (more negative = more Rep cleavage of the k-mer); sequences stand for … in CTCGTCCG…ACCGGAGA
[1] = system: T1, Rep nickase domain of Muscovy duck circovirus
T1 sequence (protein, residues 1-111, tag omitted): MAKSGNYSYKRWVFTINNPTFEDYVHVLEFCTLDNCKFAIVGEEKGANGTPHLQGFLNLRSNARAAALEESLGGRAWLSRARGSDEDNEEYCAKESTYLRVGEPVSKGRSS
Protocol: (§1)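 A pool of 90-nt single-stranded DNAs with seven random bases just before the constant AC of the nick site (name = the seven bases) was cut by 3 µM recombinant His6-SUMO-tagged Rep nickase domain (300 nM DNA, 50 mM HEPES pH 8.0, 50 mM NaCl, 1 mM MnCl2, 1 h, 37 °C, three replicates). Uncut DNA was amplified and sequenced.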

[2] = system: T2, Rep nickase domain of banana bunchy top virus
T2 sequence (protein, residues 1-94, tag omitted): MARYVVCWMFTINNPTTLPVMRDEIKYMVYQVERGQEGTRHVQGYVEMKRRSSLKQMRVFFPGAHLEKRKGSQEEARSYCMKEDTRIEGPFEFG
Protocol: as §1

[3] = system: T3, Rep nickase domain of cabbage leaf curl virus
T3 sequence (protein, residues 1-116, tag omitted): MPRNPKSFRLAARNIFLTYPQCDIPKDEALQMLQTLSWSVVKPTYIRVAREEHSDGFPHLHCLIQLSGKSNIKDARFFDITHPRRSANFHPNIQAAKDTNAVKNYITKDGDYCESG
Protocol: as §1

[4] = system: T4, Rep nickase domain of chickpea chlorotic dwarf virus
T4 sequence (protein, residues 1-124, tag omitted): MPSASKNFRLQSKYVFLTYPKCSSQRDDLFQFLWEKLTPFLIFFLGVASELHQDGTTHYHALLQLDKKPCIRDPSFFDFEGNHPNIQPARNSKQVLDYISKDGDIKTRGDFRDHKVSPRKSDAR
Protocol: as §1

[5] = system: T5, Rep nickase domain of faba bean necrotic yellows virus
T5 sequence (protein, residues 1-98, tag omitted): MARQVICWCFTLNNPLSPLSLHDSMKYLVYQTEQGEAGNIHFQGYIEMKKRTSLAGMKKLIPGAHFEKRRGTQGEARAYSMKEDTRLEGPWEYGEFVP
Protocol: as §1

[6] = system: T6, Rep nickase domain of maize striate mosaic virus
T6 sequence (protein, residues 1-117, tag omitted): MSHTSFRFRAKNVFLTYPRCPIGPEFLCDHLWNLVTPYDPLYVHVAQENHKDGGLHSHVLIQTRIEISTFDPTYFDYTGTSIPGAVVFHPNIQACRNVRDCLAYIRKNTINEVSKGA
Protocol: as §1

[7] = system: T7, Rep nickase domain of porcine circovirus 2
T7 sequence (protein, residues 2-116, tag omitted): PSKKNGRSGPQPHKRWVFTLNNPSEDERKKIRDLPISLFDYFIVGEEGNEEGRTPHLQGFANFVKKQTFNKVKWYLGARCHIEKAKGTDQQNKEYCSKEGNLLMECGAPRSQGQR
Protocol: as §1

[8] = system: T8, Rep nickase domain of tomato golden mosaic virus
T8 sequence (protein, residues 1-124, tag omitted): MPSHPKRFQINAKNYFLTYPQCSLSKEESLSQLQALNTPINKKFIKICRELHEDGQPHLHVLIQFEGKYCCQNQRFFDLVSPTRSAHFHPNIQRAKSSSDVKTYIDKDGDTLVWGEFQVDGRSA
Protocol: as §1

[9] = system: T9, Rep nickase domain of tomato yellow leaf curl virus
T9 sequence (protein, residues 1-136, tag omitted): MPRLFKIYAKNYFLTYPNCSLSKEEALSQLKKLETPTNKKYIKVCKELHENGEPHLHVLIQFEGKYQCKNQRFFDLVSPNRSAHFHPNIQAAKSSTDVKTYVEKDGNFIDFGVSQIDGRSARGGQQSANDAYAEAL
Protocol: as §1

[10] = system: T10, Rep nickase domain of wheat dwarf virus
T10 sequence (protein, residues 1-137, tag omitted): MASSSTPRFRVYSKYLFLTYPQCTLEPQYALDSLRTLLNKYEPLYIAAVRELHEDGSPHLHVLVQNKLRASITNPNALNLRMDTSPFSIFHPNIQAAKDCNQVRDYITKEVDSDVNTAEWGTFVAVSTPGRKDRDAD
Protocol: as §1

Sequence	uncleaved DNA left (log2) [1]	uncleaved DNA left (log2) [2]	uncleaved DNA left (log2) [3]	uncleaved DNA left (log2) [4]	uncleaved DNA left (log2) [5]	uncleaved DNA left (log2) [6]	uncleaved DNA left (log2) [7]	uncleaved DNA left (log2) [8]	uncleaved DNA left (log2) [9]	uncleaved DNA left (log2) [10]
GCTCCTT	0.0749	-0.000612	0.193	-0.685	0.0774	0.427	-0.0413	0.112	0.0838	0.0987
CTTGATT	-0.217	-1.07	-0.201	-2.32	-0.216	-0.688	-3.36	-0.124	-0.0883	-0.261
TTCTACT	-3.64	-0.63	-1	-2.94	-0.17	-0.276	-3.52	-0.187	-0.0564	-0.226
TGTCGTG	-0.145	-0.131	-0.705	-0.895	-0.0902	-1.04	-0.0995	-0.202	-0.0856	-0.283
CTGCGCC	0.0588	-0.0571	-0.505	-0.461	0.104	-0.828	0.141	-0.203	0.0168	-0.0824
GACAGGT	0.0872	-0.0339	0.396	0.919	-0.000833	1.3	0.14	-0.0236	0.0444	0.0361
CCCTATT	-2.93	-1.82	-0.878	-2.77	-0.29	-0.763	-2.99	-0.153	-0.112	-0.735
TGCCCTA	-0.0325	-0.00086	0.25	0.0698	-0.0353	0.149	-0.205	-0.0858	0.0632	0.103
AAACGCC	-0.0703	0.0382	-0.251	-0.806	0.0156	-0.766	-0.0379	-0.0383	-0.0876	-0.104
TGCTATA	-0.0248	-0.0403	-0.057	-1.1	-0.0992	-0.428	-0.158	0.0433	0.067	0.0614
GAACTAT	0.00884	0.0582	0.312	0.0641	-0.0925	1.45	0.0694	0.0592	0.0863	0.212
CACCCTA	-0.125	-0.212	-0.336	-2.6	-0.168	-0.659	-0.902	-0.31	-0.205	-0.21
AGTTATG	-0.013	-0.0486	-0.0403	0.13	-0.0543	-0.0692	-0.0514	0.0277	-0.00886	0.0156
GGCACTA	-0.0231	0.036	0.509	1.41	-0.0274	1.94	0.125	-0.0271	-0.0184	0.0977
GGAACAG	-0.028	0.00138	0.806	2.05	0.000578	2.18	0.2	-0.0128	-0.0391	0.107
